Reference: patent US20250388641A1 (CUGENE, published 2025)

T1: huIL-15Rβ-6His (human, UniProt P14784 27-240, limits assumed)
T1 construct: Coated on the ELISA plate; also called hull-15Rβ-6His; IL-15Rβ subunit
T1 sequence: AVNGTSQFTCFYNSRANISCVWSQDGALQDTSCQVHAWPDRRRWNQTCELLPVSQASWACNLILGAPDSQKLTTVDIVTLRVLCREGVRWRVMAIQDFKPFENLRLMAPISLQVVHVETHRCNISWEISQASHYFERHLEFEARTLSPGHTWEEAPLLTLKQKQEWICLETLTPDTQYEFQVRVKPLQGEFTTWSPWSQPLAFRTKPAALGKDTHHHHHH


What was measured:
huIL-15Rβ-6His [1] = target: T1, huIL-15Rβ-6His; test: ELISA binding EC50 relative to wild type P-0153
Description: (§1) The binding activity was tested in ELISA assay. Briefly, Nunc Maxisorp (ThermoFisher) plates were coated overnight at 4° C. with hull-15Rβ-6His at 1 ug/well (100 μl/well) in bicarbonate buffer pH 9.4 (ThermoFisher). After washing 3 times with PBS/0.05% Tween20, plates were incubated with SuperBlock (300 μl/well) at room temperature for 2 hrs. to block nonspecific binding. After washing, IL-15 compounds each at 3-fold serial dilutions with blocking buffer were added to the plates (100 μl/well) and incubated at room temperature for 1 hr. After washing, the Fc fusions were detected by 1 hr. incubation at room temperature with a goat anti-human IgG Fc secondary antibody conjugated with horseradish peroxidase (HRP) at 1:5000 dilution in blocking buffer (ThermoFisher) (100 μl/well). After washing, TMB substrate (ThermoFisher) was added (100 μl/well). Plates were sealed and incubated 5-20 min at room temperature in dark. Reaction was stopped by adding 2N sulfuric acid (Ricca Chemical) (50 μL/well) and absorbance was read at 450-590 nm.

huIL-15Rβ-6His [2] = target: T1, huIL-15Rβ-6His; test: ELISA binding to IL-15Rβ, relative to wild type (repeats Table 3)
Description: as §1

huIL-15Rβ-6His [3] = target: T1, huIL-15Rβ-6His; test: ELISA, huIL-15Rβ-6His coated on plate, anti-human IgG Fc-HRP detection
Description: as §1

| Binder | Fold change (huIL-15Rβ-6His [1]) | Fold change in binding EC50 (huIL-15Rβ-6His [2]) | EC50 (huIL-15Rβ-6His [3]) |
| --- | --- | --- | --- |
| P-0179, IL-15/IL-15Rα heterodimeric Fc fusion, IL-15m1 (Q108S) (Fc fusion) chain 1: [about 250 residues not shown][about 120 residues with changes not shown] chain 2: DKTHTCPPCPAPEAAGAPSVFLFPPKPKDTLMISRTPEVTCVVVDVSHEDPEVKFNWYVDGVEVHNAKTKPREEQYNSTYRVVSVLTVLHQDWLNGKEYKCKVSNKALPAPIEKTISKAKGQPREPQVCTLPPSREEMTKNQVSLWCLVKGFYPSDIAVEWESNGQPENNYKTTPPVLDSDGSFFLYSKLTVDKSRWQQGNVFSCSVMHEALHNHYTQKSLSLSPGEPKSSDKTHTSPPSPITCPPPMSVEHADIWVKSYSLYSRERYICNSGFKRKAGTSSLTECVLNKATNVAHWTTPSLKCIRDPALVHQRPAPP | 2 fold | 2 fold | 1.42 nM |
| P-0180, IL-15/IL-15Rα heterodimeric Fc fusion, IL-15m2 (Q108A) (Fc fusion) chain 1: [about 250 residues not shown][about 120 residues with changes not shown] chain 2: DKTHTCPPCPAPEAAGAPSVFLFPPKPKDTLMISRTPEVTCVVVDVSHEDPEVKFNWYVDGVEVHNAKTKPREEQYNSTYRVVSVLTVLHQDWLNGKEYKCKVSNKALPAPIEKTISKAKGQPREPQVCTLPPSREEMTKNQVSLWCLVKGFYPSDIAVEWESNGQPENNYKTTPPVLDSDGSFFLYSKLTVDKSRWQQGNVFSCSVMHEALHNHYTQKSLSLSPGEPKSSDKTHTSPPSPITCPPPMSVEHADIWVKSYSLYSRERYICNSGFKRKAGTSSLTECVLNKATNVAHWTTPSLKCIRDPALVHQRPAPP | 4 fold | – | 2.76 nM |
